Assay results published in the supplement of paper PMC3334620.
Over roughly 33,000 sequences, “E-score (-0.5 to 0.5)” has its median near -0.053; the highest 2% begin near 0.37. Some of the results follow.

Each sequence was assayed against Hap1 (UniProt P0CE41) (assay: PBM E-score (8-mer binding enrichment) (E-score (-0.5 to 0.5)); higher = stronger / more preferred TF binding; most listed sequences are background and not binding sites). Conditions: protein concentration: 200 nM; construct: GST-DNA-binding domain.
Sequence of UniProt P0CE41 (P0CE41 whole entry, the tested form may be a part): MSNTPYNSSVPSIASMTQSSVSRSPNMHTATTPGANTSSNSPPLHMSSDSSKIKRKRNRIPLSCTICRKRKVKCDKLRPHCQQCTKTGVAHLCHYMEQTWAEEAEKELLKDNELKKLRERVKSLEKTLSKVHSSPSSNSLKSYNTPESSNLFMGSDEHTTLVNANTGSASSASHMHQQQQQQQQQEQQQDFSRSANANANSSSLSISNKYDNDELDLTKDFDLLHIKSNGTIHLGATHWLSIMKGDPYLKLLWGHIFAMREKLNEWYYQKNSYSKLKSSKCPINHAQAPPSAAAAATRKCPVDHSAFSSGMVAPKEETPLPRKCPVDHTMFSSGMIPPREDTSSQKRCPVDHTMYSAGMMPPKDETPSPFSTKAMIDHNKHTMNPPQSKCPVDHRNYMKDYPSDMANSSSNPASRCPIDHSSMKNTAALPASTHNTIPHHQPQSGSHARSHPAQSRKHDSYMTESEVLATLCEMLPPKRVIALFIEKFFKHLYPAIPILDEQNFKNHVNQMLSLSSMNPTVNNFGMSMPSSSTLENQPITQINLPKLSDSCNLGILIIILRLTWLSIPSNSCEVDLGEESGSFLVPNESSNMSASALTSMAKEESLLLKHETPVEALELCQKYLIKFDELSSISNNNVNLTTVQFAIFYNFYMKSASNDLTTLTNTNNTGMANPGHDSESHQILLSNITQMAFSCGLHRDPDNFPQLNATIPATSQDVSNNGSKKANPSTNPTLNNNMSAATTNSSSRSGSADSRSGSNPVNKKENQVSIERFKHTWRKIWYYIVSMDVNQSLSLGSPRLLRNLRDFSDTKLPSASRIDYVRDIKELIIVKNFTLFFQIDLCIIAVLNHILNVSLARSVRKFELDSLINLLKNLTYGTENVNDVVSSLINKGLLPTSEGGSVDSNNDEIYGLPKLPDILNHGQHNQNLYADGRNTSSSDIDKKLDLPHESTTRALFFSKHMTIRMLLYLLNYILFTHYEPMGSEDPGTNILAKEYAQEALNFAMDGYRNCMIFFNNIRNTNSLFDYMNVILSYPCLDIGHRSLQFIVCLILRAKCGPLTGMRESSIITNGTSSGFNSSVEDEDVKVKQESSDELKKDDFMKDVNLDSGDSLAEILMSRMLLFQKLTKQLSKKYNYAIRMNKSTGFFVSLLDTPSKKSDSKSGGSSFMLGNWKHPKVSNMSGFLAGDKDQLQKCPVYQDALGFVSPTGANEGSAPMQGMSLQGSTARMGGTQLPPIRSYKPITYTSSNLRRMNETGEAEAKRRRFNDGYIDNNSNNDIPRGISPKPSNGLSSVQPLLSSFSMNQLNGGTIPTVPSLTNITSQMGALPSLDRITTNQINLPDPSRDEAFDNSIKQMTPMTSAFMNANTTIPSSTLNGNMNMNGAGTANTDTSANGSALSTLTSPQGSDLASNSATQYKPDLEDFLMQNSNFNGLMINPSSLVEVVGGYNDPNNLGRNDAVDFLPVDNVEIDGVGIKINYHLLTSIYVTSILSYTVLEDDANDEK
Procedure, shortened: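 The E-score, a modified Wilcoxon-Mann-Whitney statistic, was computed by the Universal PBM Analysis Suite for every ungapped eight-base word pooled with its reverse complement. Scans behind it were normalised with masliner after bound GST-tagged yeast transcription factors were detected with fluorescent anti-GST. The proteins, at about 100-200 nM, had been applied to universal all-10-mer Agilent arrays made double-stranded by primer extension.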

Sequence	PBM E-score
ACCAAAGA	-0.0325
TAGCAATA	0.0382
CACTACTC	0.0257
AGAACAAT	-0.146
CGTATAGC	0.157
AAATTCGA	-0.109
GGCATTGA	0.115
AGATCGAC	-0.0629
TCCACACA	-0.147
CTAAAAAG	-0.101
CAGTGTCG	-0.0888
GCCAAGGC	-0.282
AATATTTA	-0.113
ATGCACTG	-0.261
ACACGGTC	-0.00889
AGTTACAG	-0.131
CACGATAG	-0.138
CCAAATGA	0.00146
GCAGTCAA	-0.217
AGCTGGGC	-0.00364
AGCGGAAT	0.168
CGAACGCC	0.116
GATCATTA	0.144
ACTCTCAC	-0.219
AGATACTG	-0.126

Sequence	PBM E-score
CATAATAA	-0.0392
AATTGCGT	0.141
CACACAGC	-0.159
CCTGAATA	-0.0801
AATATTGC	0.0342
AATGACGA	-0.158
AAATGTGA	-0.186
AGCGCTCA	-0.0312
CCTTGTCA	-0.311
CGAATTCG	0.228
GAACGCGA	-0.061
AGAGCAGA	-0.17
ATATGTAC	0.0573
CGCGCACC	0.0372
ACCGTATA	-0.119
AGACGGAT	0.0909
ATAGAAAA	-0.236
AAGCCGCT	0.14
CAGAGGCA	-0.2
ACGTGTAC	-0.157
AGTATAAT	0.0488
CTCGCCGA	0.276
ATCGGATC	0.339
CAATCCAA	-0.253
AGGCGTTA	0.0359

Sequence	PBM E-score
CAAAGATA	-0.148
TACTACCA	-0.298
CGTCCAGA	-0.168
GCATATCC	0.0624
ATCTTGCA	0.00822
CCGGACAC	0.351
GAAGCACC	-0.177
GACTACTC	0.0831
CCGTGCAG	0.129
ACTTGGGC	-0.0344
CCTAAGAG	-0.121
AGAGAACC	-0.161
TGGCCCCA	-0.196
ATACGGAA	0.33
CTAGATAG	-0.139
ACCTGCCT	-0.122
CCGATCGA	0.325
AGTCACGC	-0.197
TCCCAGGA	-0.167
GATAGAAA	-0.0692
AAATCTTC	0.0751
GAATTCCA	0.0237
AAAAATAA	-0.0273
TTAAGAAA	-0.136
AGAAAATA	-0.0987

Sequence	PBM E-score
CACGTGGG	-0.229
CCCGGTCC	0.365
GCTCAAGC	-0.202
AAGCTTGC	-0.255
GGACGCTA	0.0559
ACCGCGAC	0.0253
CCGTAGAA	-0.0878
GGCCCATA	0.0917
CGGCAGTA	0.299
AGGTAGAG	-0.0946
ACAGCGAC	-0.215
ATTCCCGG	0.395
CACATTCC	0.0842
CCCATAGG	-0.0829
CCTTGGCA	-0.232
GTATCAAA	-0.186
GTTATCGA	0.165
ATGCGCGC	0.217
ACTTAAAA	0.0671
ACGGTTGC	-0.063
AAGGGGCC	-0.0696
CTGGCCAA	-0.142
CGGCTATC	0.286
CACCTCGC	0.135
AGTTATTG	-0.116

Sequence	PBM E-score
CAAGCGTA	-0.264
AAGCCCTA	-0.139
CTTAACAC	-0.135
CCCTGCAA	-0.168
ACGGGAGT	0.138
AGGCAGAG	-0.234
AACTATTC	0.0539
ACTCCACC	-0.0311
GGTGGTCA	-0.0436
TGTGGAAA	-0.016
ATCTTTTC	0.0446
AGAGAACA	-0.157
ACATAGCC	0.0649
ATTCCCGC	0.318
CCCGCTGA	0.106
CCCTATTC	0.146
AGGAGCCG	0.124
CCCGGCGA	0.337
CCCCTAAC	-0.12
CATCACAG	-0.258
GCAAACGA	-0.121
ACGCGAGA	-0.181
CTATCTTC	-0.13
GAGCAAAC	-0.00159
GAAGCGGA	0.186

Sequence	PBM E-score
AGGACTAT	-0.0986
CCAACGCG	0.0685
AACGCCAT	-0.145
ATGACCAT	-0.121
CACGAAGG	-0.0928
CTGCATGA	-0.298
AACGACGT	-0.146
GGAACCGA	0.27
AGTATATG	-0.0866
CATTGACA	-0.213
CCCTCGTA	-0.0221
CGCCCGGC	0.335
AGGGCGTG	0.0258
GGAGTACC	0.00594
ATGAAATC	-0.111
ACACCCGA	0.305
GCTGAACC	0.0337
AAGATTCC	0.0921
CCCCCTAC	-0.202
CCAATGAA	-0.225
CGTGTATC	0.0108
ACCACTGA	-0.312
ATATAGTC	0.0135
AGAATCCT	-0.18
TAGTGTCA	-0.227

Sequence	PBM E-score
AGCTTCAA	-0.161
TCCCGGAA	0.397
AAGACAGC	-0.01
ATTTTAAC	0.0876
ATTCACCC	0.217
CTCGTTTC	-0.00994
CCGTAATA	0.251
CGAGGCAC	0.0885
CGAGAGAA	0.0838
GGAATTAC	0.375
CGCTCTCA	-0.205
AATAGGAT	0.0961
TACGTTGA	-0.223
GAGGTTGC	0.00013
AGAACTCC	0.0259
GTGGGGTA	0.211
ACTCGTTG	-0.304
TGTTCGAA	-0.209
AACATGAA	-0.0851
GAAATCGA	0.137
CCCTTCGA	-0.0916
ATGACGGG	0.134
ATTACATG	0.0369
CATGGAAG	-0.0163
AAGCAATC	-0.154

Sequence	PBM E-score
AAAGTAGC	-0.0475
ACTCTGTA	-0.282
GTTCGAAA	-0.0341
AAGTTTTA	-0.0495
ATAGGTTC	-0.066
AACCCCCT	-0.362
CGTTATCA	0.105
CTTATGAA	-0.129
TACAGTAA	-0.29
CATCTCCG	0.435
CCCACTCC	0.00898
AAGCCACA	-0.232
ATTCTTCC	0.104
GCACACCA	-0.063
CCGCCATA	0.257
ATGTCTGC	0.101
AACGACCC	0.00262
GCACTATA	-0.136
TCGCGTCA	-0.0875
CCCGGAGC	0.354
GTCCATTA	0.0161
CCGATAAA	0.461
CACAGACA	-0.186
CTCCTAAG	-0.0623
GGGTGATA	0.167

Sequence	PBM E-score
AGGGGCCG	-0.0311
ATGCATTG	-0.194
CGCGATAA	0.115
CAGATGGA	-0.0278
ACTACACA	-0.0805
AACAGGTC	-0.267
ATGAAAAC	0.057
TGACAGAA	-0.247
GATATACA	0.208
AGAGTCCG	0.288
AGAGTTCC	0.0898
ACCTTGTC	-0.242
ACTCCGTG	0.292
AAACTGGG	-0.122
CTATGCCC	0.0184
ATTACGCA	0.123
CGAGGTCC	0.273
AAACCTCT	0.0165
ATTCCATG	0.134
